{"source": "PubChem BioAssay AID504832", "about": "(National Center for Advancing Translational Sciences (NCATS), 2011)", "note": "About 18,000 (5.8%) of roughly 310,000 compounds were called active. The shares of active, inactive and inconclusive entries below differ from those in the screen. Calls follow the shape of the dose curve; as a rule, active = well fitted inhibition curve with a large enough effect; inconclusive = small, poorly fitted or top-dose-only effect, or another doubt; inactive = no such curve, though single readings can be large or run the other way. No potency is given beside an inconclusive call; the fits are too rough. % is scaled to controls: 0 for no effect and ±100 for the full control effect; potency is read from the fitted curve at half-maximal effect; tags tell the direction and shape of the fitted curve.", "data": [{"assay": "Primary qHTS for delayed death inhibitors of the malarial parasite plastid, 48 hour incubation", "conditions": "P. falciparum luciferase growth in erythrocytes; series mostly up to 28.7 µM; activity change, negative = inhibition: at the top concentration", "outline": "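Firefly luciferase activity from engineered P. falciparum reports growth; inhibitors lower the luminescent signal. Cultures contained 2% hematocrit erythrocytes at 0.1% final parasitemia.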", "values": [{"smiles": "COc1cc(-c2cc(C(=O)Nc3ccncc3)c3ccccc3n2)cc(OC)c1OC", "Potency": "active: 8.28 µM"}, {"smiles": "COc1ccc(OC)c(NC(=O)c2cc(-c3cc(Cl)ccc3O)n[nH]2)c1", "Potency": "active: 1.65 µM"}, {"smiles": "Cc1ccccc1-n1nc(C)c2cc(C(=O)N3CCN(S(=O)(=O)c4ccc(Cl)cc4)CC3)sc21", "Potency": "active: 5.22 µM"}, {"smiles": "Cc1cccn2c(CNCCCn3ncc4ccccc43)c(C(=O)N3CCCCC3)nc12", "Potency": "inconclusive [inhibitor, partial curve, poor fit]"}, {"smiles": "COC(=O)c1ccc(OC(=O)C2CC(=O)N(c3cccc(C)c3)C2)cc1", "note": "(configuration not stated)", "activity change, negative = inhibition": "inactive: 18.8%"}, {"smiles": "Cc1onc(-c2ccccc2)c1C(=O)OCC(=O)Nc1cccc(Cl)c1", "Potency": "active: 11.7 µM"}, {"smiles": "CSCCC(NC(=O)c1ccccc1)C(=O)NCC(C)(C)N1CCOCC1", "note": "(configuration not stated)", "Potency": "inconclusive [inhibitor, single point]"}, {"smiles": "COc1ccc2c(c1)C1=NN(/C(C)=C\\C(C)=O)C(c3ccccc3)C1CC2", "note": "(configuration not stated)", "Potency": "active: 13.1 µM"}, {"smiles": "COc1ccc(NC(=O)CSc2nc3c(c(=O)n2-c2ccc(C)cc2)SCC3)c(OC)c1", "Potency": "inconclusive [inhibitor, single point]"}, {"smiles": "Cc1cc(N2CC(C)OC(C)C2)nc(C(C)C)n1", "note": "(configuration not stated)", "Potency": "inconclusive [inhibitor, single point]"}, {"smiles": "COc1ccc(-c2cc(C)no2)cc1S(=O)(=O)N1CCCN(Cc2ccccc2Cl)C1", "Potency": "inconclusive [inhibitor, single point]"}, {"smiles": "COc1ccc(/C=N/NC(=O)c2cccc([N+](=O)[O-])c2)c2ccccc12", "Potency": "inconclusive [inhibitor, single point]"}, {"smiles": "COCCn1c(SCc2nc3ccccc3s2)nc2ccccc21", "activity change, negative = inhibition": "inactive: 51.8%"}, {"smiles": "COc1ccc(N2CCN(C(=O)CCCCCn3c(=O)[nH]c4ccsc4c3=O)CC2)cc1", "Potency": "inconclusive [inhibitor, partial curve]"}, {"smiles": "COc1ccc(C(=O)Nc2ccc(C(=O)N3CCCC3)cc2)cc1[N+](=O)[O-]", "Potency": "inconclusive [inhibitor, single point]"}, {"smiles": "CCOc1ccc(CN(C(=O)c2ccco2)C2CCS(=O)(=O)C2)cc1", "note": "(configuration not stated)", "activity change, negative = inhibition": "inactive: 10.2%"}, {"smiles": "CCC12CN3CCN(CC(C3)/C1=N\\NC(=O)c1ccc(C(C)(C)C)cc1)C2", "activity change, negative = inhibition": "inactive: 28.7%"}, {"smiles": "CCOc1ccc(-c2cc(N)n(S(=O)(=O)c3cccc4nsnc34)n2)cc1", "Potency": "inconclusive [inhibitor, partial curve]"}, {"smiles": "CCN(CC)S(=O)(=O)c1ccc(S(=O)(=O)N2CCN(C(=O)c3ccco3)CC2)cc1", "activity change, negative = inhibition": "inactive: -6.21%"}, {"smiles": "C/C(=N\\NC(=O)C(c1ccccc1)c1ccccc1)c1ccccn1", "Potency": "active: 2.33 µM"}, {"smiles": "Cc1cccc(-c2nsc(SCC(=O)NCc3ccc4c(c3)OCO4)n2)c1", "activity change, negative = inhibition": "inactive: 20.2%"}, {"smiles": "CCOC(=O)CCn1cc(F)c(=O)[nH]c1=O", "activity change, negative = inhibition": "inactive: -0.873%"}, {"smiles": "Cc1onc(-c2ccccc2)c1C(=O)N/N=C/c1cc(Br)c(Br)o1", "Potency": "inconclusive [inhibitor, single point]"}, {"smiles": "O=C(NCc1ccccc1)c1ccc(CN(c2ccccn2)S(=O)(=O)c2ccccc2)cc1", "Potency": "inconclusive [inhibitor, full curve, poor fit]"}, {"smiles": "Cc1onc(-c2ccc(Cl)cc2Cl)c1-c1csc(N/N=C/c2ccccc2)n1", "Potency": "active: 3.7 µM"}, {"smiles": "O=C(c1ccco1)N1N=C(c2ccco2)CC1c1ccc(Cl)cc1Cl", "note": "(configuration not stated)", "Potency": "active: 8.28 µM"}, {"smiles": "COC(=O)c1sccc1NC(=S)N1CCC(C(N)=O)CC1", "activity change, negative = inhibition": "inactive: 13.7%"}, {"smiles": "COP(=O)(OC)OC(c1ccc(Cl)cc1)P(=O)(OC)OC", "note": "(configuration not stated)", "activity change, negative = inhibition": "inactive: 0.523%"}, {"smiles": "Cn1cnnc1SCC(=O)Nc1ccc(S(=O)(=O)N2CCOCC2)cc1", "Potency": "inconclusive [inhibitor, single point]"}, {"smiles": "CCCC(O)C(CC)CO", "note": "(configuration not stated)", "activity change, negative = inhibition": "inactive: 4.91%"}, {"smiles": "CC(C)(C)c1cc(CCC(=O)N2CCNCC2)c(C(C)(C)C)cc1O", "Potency": "inconclusive [inhibitor, single point]"}, {"smiles": "CC(CN(C)C)CN1c2ccccc2CCc2ccccc21", "note": "(configuration not stated)", "Potency": "inconclusive [inhibitor, partial curve]"}, {"smiles": "COc1ccc(OC)c(Nc2cc(C)nc3nc(C)nn23)c1", "Potency": "inconclusive [inhibitor, single point]"}, {"smiles": "CC1c2[nH]c3ccccc3c2CCN1C(=O)Nc1ccccc1", "note": "(configuration not stated)", "Potency": "inconclusive [inhibitor, partial curve]"}, {"smiles": "COc1ccc(N2C(N)=C(C#N)C(c3ccsc3)C3=C2CCCC3=O)c(OC)c1", "note": "(configuration not stated)", "Potency": "inconclusive [inhibitor, partial curve, poor fit]"}, {"smiles": "Cc1cc(=O)n2nc(N3CCC(C(=O)NC4CCCc5ccccc54)CC3)sc2n1", "note": "(configuration not stated)", "Potency": "inconclusive [inhibitor, partial curve]"}, {"smiles": "CCOc1cc(/C=C(\\C(=O)O)c2ccc(S(=O)(=O)N3CCCC3)s2)ccc1OC", "Potency": "inconclusive [inhibitor, single point]"}, {"smiles": "Cc1ccc(NC(=S)N(C)C)cc1C", "activity change, negative = inhibition": "inactive: -9.54%"}, {"smiles": "COc1ccc(NS(=O)(=O)c2cc(C(=O)N3CCN(C/C=C/c4ccccc4)CC3)ccc2C)cc1", "Potency": "active: 11.7 µM"}, {"smiles": "COC(=O)c1cc2c(=O)n3ccccc3nc2n(C)c1=N", "Potency": "inconclusive [inhibitor, full curve, poor fit]"}, {"smiles": "O=C(CCN1C(=O)NC2(CCCC2)C1=O)Nc1cccc(S(=O)(=O)N2CCOCC2)c1", "activity change, negative = inhibition": "inactive: -19.7%"}, {"smiles": "CCN1C(=O)[C@H]2[C@@H](c3ccc(C)cc3)N3C(=O)N(c4cccc(C)c4)C(=O)[C@@]3(Cc3ccccc3)[C@H]2C1=O", "Potency": "inconclusive [inhibitor, partial curve, poor fit]"}, {"smiles": "COc1cc2[nH]c3c(Cl)ncnc3c2cc1OC", "Potency": "inconclusive [inhibitor, partial curve, poor fit]"}, {"smiles": "CCOC(=O)c1ccc(-n2c(CN3CCC(C(N)=O)CC3)nc3ccc([N+](=O)[O-])cc3c2=O)cc1", "Potency": "inconclusive [inhibitor, partial curve, poor fit]"}, {"smiles": "COCCOc1nc2c(c(=O)n(C)c(=O)n2C)n1CCc1ccccc1", "Potency": "inconclusive [inhibitor, full curve, poor fit]"}, {"smiles": "Cc1ccc(C2=NN3C(C2)c2ccccc2OC32C(=O)Nc3ccccc32)cc1", "note": "(configuration not stated)", "activity change, negative = inhibition": "inactive: -33.2%"}, {"smiles": "Cc1ccc(C)c(NC(=O)CSc2nnc3n2CCCCC3)c1", "activity change, negative = inhibition": "inactive: 6.39%"}, {"smiles": "O=C(CN(C(=O)c1csnn1)c1ccc(Br)cc1)NC1CCCCC1", "activity change, negative = inhibition": "inactive: -8.86%"}, {"smiles": "Cc1ccc(Cl)cc1N1CCN(C(=O)c2ccc3c(c2)CCN3S(C)(=O)=O)CC1", "Potency": "inconclusive [inhibitor, single point]"}, {"smiles": "COc1ccccc1C(=O)N1CCN(C(=O)c2oc3ccc(C)cc3c2C)CC1", "activity change, negative = inhibition": "inactive: -24%"}, {"smiles": "O=C(CSc1ccsc1[N+](=O)[O-])N1CCN(c2ccccn2)CC1", "Potency": "inconclusive [inhibitor, partial curve, poor fit]"}, {"smiles": "O=C(Nc1ccc(Br)cc1C(=O)O)c1ccc2c(c1)C(=O)N(Cc1ccccc1)C2=O", "activity change, negative = inhibition": "inactive: -18.7%"}, {"smiles": "O=c1c2c(nc3nc(SCc4ccccc4)[nH]n13)CCC2", "activity change, negative = inhibition": "inactive: -27.2%"}, {"smiles": "O=C1CCC2c3ccc4ccccc4c3CCN12", "note": "(configuration not stated)", "Potency": "inconclusive [inhibitor, single point]"}, {"smiles": "[Cl-].[Cl-].[Hg+2]", "Potency": "active: 2.13 µM"}, {"smiles": "CCNS(=O)(=O)c1ccc(NC(=O)Nc2ccccc2OC)cc1", "activity change, negative = inhibition": "inactive: 25.6%"}, {"smiles": "Cc1cc(C)cc(N(CC(=O)NC2CCCCC2)C(=O)CCCC(=O)Nc2ccccn2)c1", "Potency": "inconclusive [inhibitor, partial curve]"}, {"smiles": "COc1cc(/C=N/NC(=O)c2ccc(CSc3nc4ccccc4[nH]3)cc2)ccc1O", "Potency": "inconclusive [inhibitor, partial curve, poor fit]"}, {"smiles": "COc1ccc(S(N)(=O)=O)cc1C(=O)NCCCN1CCN(c2ccccc2OC)CC1", "Potency": "inconclusive [inhibitor, partial curve]"}, {"smiles": "O=C(NCc1ccco1)c1cc(=O)c2ccccc2o1", "Potency": "inconclusive [inhibitor, partial curve, poor fit]"}, {"smiles": "Cc1c2cnn(CC(=O)NCc3ccccn3)c(=O)c2c(C)n1Cc1ccccc1", "Potency": "inconclusive [inhibitor, single point]"}, {"smiles": "Cc1cc(CC(=O)O)c(C)cc1CC(=O)O", "activity change, negative = inhibition": "inactive: 18.5%"}, {"smiles": "N=c1c(C(=O)NCc2ccccc2)cc2c(=O)n3ccccc3nc2n1CCCN1CCOCC1", "Potency": "active: 5.86 µM"}, {"smiles": "O=C(COc1ccc(/C=N/NS(=O)(=O)c2ccccc2)cc1)NCCc1ccccc1", "Potency": "inconclusive [inhibitor, single point]"}, {"smiles": "CN1CCN(CC(=O)c2cc(C(C)(C)C)c(O)c(C(C)(C)C)c2)CC1", "Potency": "inconclusive [inhibitor, single point]"}, {"smiles": "Cc1cccc(-c2c3c(=O)n(C)c(=O)n(C)c3cn2-c2ccccc2O)c1", "Potency": "active: 1.85 µM"}, {"smiles": "CC1(C)CC(=O)c2cnc(NCc3ccco3)nc2C1", "activity change, negative = inhibition": "inactive: 22.3%"}, {"smiles": "S=C(Nc1cccnc1)Nc1ccccc1Br", "activity change, negative = inhibition": "inactive: -6.52%"}, {"smiles": "CC1(C)Cc2c(C#N)c(N3CCOCC3)nc(-c3ccccc3)c2CO1", "Potency": "active: 10.4 µM"}, {"smiles": "COc1cccc(NC(=S)/C(=C(\\[O-])c2cc(C)n(-c3ccccc3F)c2C)[n+]2ccc(N(C)C)cc2)c1", "Potency": "inconclusive [inhibitor, single point]"}, {"smiles": "COc1cc2c(cc1OC)C(c1ccccc1)N(C(=O)c1ccccc1)CC2", "note": "(configuration not stated)", "Potency": "inconclusive [inhibitor, partial curve]"}, {"smiles": "Cc1nn(Cc2ccccc2)c(C)c1NC(=O)c1cc(-c2cccs2)on1", "Potency": "inconclusive [inhibitor, partial curve, poor fit]"}]}]}
